Reference: US20200148733A1 (Pieris, published 2020)

Molecular target: T1, lipocalin mutein SEQ ID NO: 5
T1 construct: Human tear lipocalin (Tlc) mutein specific for IL-17A; also called Tlc mutein
Test: solution competition ELISA: 0.5 nM SEQ ID NO: 5 pre-incubated with varied ligand, free mutein captured on immobilised biotinylated hIL-17A (competitor)
Protocol: In the following detailed experimental protocol, incubation and washing steps were performed as described above in the competition ELISA protocol. A 384-well plate suitable for fluorescence measurements (Greiner FLUOTRAC™ 600, black flat bottom, high-binding) was coated with 20 μl of Neutravidin at a concentration of 5 μg/ml in PBS over night at 4° C. After washing, the Neutravidin-coated wells were blocked with 100 μl blocking buffer (PBS-T/BSA) for 1h at room temperature.

T1 sequence (chain, as listed by the source): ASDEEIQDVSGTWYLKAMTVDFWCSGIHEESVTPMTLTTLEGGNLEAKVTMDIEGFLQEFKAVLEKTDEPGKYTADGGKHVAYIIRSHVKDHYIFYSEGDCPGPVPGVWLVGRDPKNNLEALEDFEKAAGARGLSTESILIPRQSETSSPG

| IC50 | Binder |
| --- | --- |
| 400 pM | human IL-17A (ligand, also called hIL-17A; IL-17 A/A) not shown |
| 400 pM | human IL-17 A/F heterodimer (ligand, Heterodimer of IL-17A and IL-17F; also called hIL-17 A/F; hIL-17 AF) chain 1: [sequence of about 150 residues omitted] chain 2: RKIPKVGHTFFQKPESCPPVPGGSMKLDIGIINENQRVSMSRNIESRSTSPWNYTVTWDPNRYPSEVVQAQCRNLGCINAQGKEDISMNSVPIQQETLVVRRKHQGCSVSFQLEKVLVTVGCTCVTPVIHHVQ |
